# Results reported in the supplement of paper PMC11417369.
# Some of the results follow.
# System: PF3D7_0420300 AP2 domain 1 (GST-tagged)
# Assay: gcPBM binding intensity (ln(normalized median fluorescence intensity)); higher = stronger DNA binding
# Summary of the method: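 An Agilent 4 × 180k array carrying primer-extended double-stranded 36-bp intergenic genomic probes and negative controls received GST-tagged P. falciparum DNA-binding domains expressed in E. coli, about 25 μg on average, for 1 h. The binding buffer contained 1× PBS, 1% milk, 0.2 mg/ml BSA, 0.5% salmon testes DNA and 0.03% Triton X-100. Binding intensity is the top Masliner-normalised natural-log median intensity across replicate spots of either probe orientation, read after Alexa488 anti-GST antibody staining and a 488 nm scan.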
row,Sequence,gcPBM binding intensity (ln)
1,ATATTTCTGTCAAGCACACATAATATTAAAATATGT [CACACA_site4330],9.31
2,ATTTAGAAAAATAAAACACACATATAGATGTAAATA [CACACA_site7853],9.43
3,TCATATTATAATGTGAGTACATATAATAAATAAGTT [XGTACX_site2470],9.12
4,ATGTTTGTCTATAGCTGTACCTATTTATAAAACGTA [XGTACX_site7157],9.34
5,TTAATATGATATATATATATATATATATATATATAT [CACACA_negctrl_site683],8.91
6,GTAAAAATTTTAAATACATGCAAGCGATTAATATGA [TGCATGCA_site80],9.1
7,AAGAAAAACTTTACGTGTACCAAACATCCTGCCAAC [XGTACX_site598],9.64
8,ATAGACAGCGCACAAACACACAAACACCCACCCACA [CACACA_site8043],10.1
9,TATATTGATGATGATAGTACGTATGATTAGAAAAAA [XGTACX_site8989],9.18
10,AGTGATACTAATTTTTGTACGCATAAAAGAATATTC [XGTACX_site6055],9.08
11,AAAAAAAAAAAAATACGTACATACATACCTACATAT [XGTACX_site233],9.4
12,TATATATATATGTGTACACAATTTATCTGTATTTAT [CACACA_site5945],9.5
13,TTTTTTTTTTTTTTTTGTACGTATCAAAAAATTTGT [XGTACX_site1023],8.53
14,AAAAATAAATTTAGTTGTACTTTATTATTTTAAATA [XGTACX_site3067],9
15,AATCAATAAATAAAAACATGCATATATATATATATA [TGCATGCA_site438],9.3
16,AAAATAAAAATATTCACACATACAAAAATTATACAA [CACACA_site5136],9.56
17,CATTAATAAAAAAAAAGTACAAAAAATATATATATT [XGTACX_site2091],9.42
18,ATTTTTTTACTGTAACCATATTTTTCCCTTTTATTC [CACACA_negctrl_site1143],9.45
19,ATAATATATATATATAGTACATATATATAATATTCT [XGTACX_site2445],9.16
20,ATATAAAAATGTGTATGTACACACTTTATTTTTAAT [XGTACX_site5272],9.29
21,ATCCTTTATTTTTTTTGTACATAAAAATAACTCGAG [XGTACX_site3885],9.18
22,TTAAAAAACCTTAGATGTACAGTTATATATAAAATA [XGTACX_site6688],9.18
23,AAATTACAAATACAAACACACAAATGTTTTTCATTC [CACACA_site3552],9.4
24,TTTTTCTATAAAAAATGTACATATTTTATGAAGGAA [XGTACX_site821],8.75
